Data as given in PubChem BioAssay AID445 (National Center for Advancing Translational Sciences (NCATS), 2006).
Out of some 110,000 compounds screened, about 40 (0.04%) were called active. Inconclusive means that the source gave no clear call. Such entries were picked first, then a sample of the others. The call rests on the fitted dose curve; in most records, active means well fitted curve in the direction sought with a large enough effect in the signal ratio (not every such curve was filed as active); inconclusive means small, poorly fitted or top-dose-only effect, or a change in a side signal; inactive means flat fitted curve, though single readings scatter; the % refers to the signal ratio. Where the call is inconclusive, the potency comes from a doubtful curve fit.

experiment: IkB Signaling; settings: ABC-DLBCL IkBa-CBG/CBR dual luciferase ratio (green luciferase fused to IkBa over red control in OCI-Ly3 lymphoma cells), 4 h; IkBa stabilization activation: at 57.1 µM (top of the series), scaled: untreated 0%, proteasome inhibitor 100% unless noted;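 on IkBa stabilization activation: 0% = basal untreated cells and 100% = reference inhibitor full response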
Source text: NIH Molecular Libraries Screening Centers Network [MLSCN]
NIH Chemical Genomics Center [NCGC]
Nuclear factor kappa-B (NF-kappa-B) plays an important role in normal B cell development and survival. Diffuse large B cell lymphoma (DLBCL) is the most commonly observed type of non-Hodgkin's lymphoma. Gene expression analysis has identified an activated B cell-like subtype of DLBCL (ABC-DLBCL) which expresses known NF-kappa-B target genes. […] However, targets upstream of IKK have been largely unexplored and so nodes upstream of IKK in the NF-kappa-B pathway remain untested due to the lack of chemical probes.
A cell-sensor assay for I-kappa-B-alpha stabilization was developed with NIH investigator Dr. R. Eric Davis in Dr. Louis M. Staudt's laboratory. The assay uses green (CBG68) and red (CBR) emitting beetle luciferases [Chroma-Glo(TM) developed by Promega Corp.] where the green luciferase is fused to I-kappa-B-alpha and the red luciferase is present in its native state. Both luciferase genes are stably present in the OCI-Ly3 human ABC DLBCL cell line, but their expression is under the control of tetracycline-inducible promoters. Following the addition of doxycycline to induce expression of the luciferases, the green luminescence in control cultures rises only slowly because the CBG fusion partner I-kappa-B-alpha is targeted by IKK activity for rapid degradation. In contrast, green luminescence rises rapidly in the presence of proteasome inhibitors or IKK inhibitors. The rise in red luminescence of CBR is not affected by proteasome or IKK inhibitors, and serves as normalization for cell number and nonspecific effects. Compounds were screened as a concentration-titration series that ranged from 57 uM to 0.7 nM.
NCGC Assay Protocol Summary:
Cells were seeded in 1536-well plates at 5000 cells/3ul in IMDM medium containing 0.5% FBS, w/o phenol red, L-glutamine, 25 mM HEPES, 3 mg/ml sodium bicarbonate. After centrifugation for 1 min. at 1000 rpm, 23 nl of compounds or DMSO were delivered to each well using a pin tool. Then 1ul 80ng/ml doxycycline was dispensed into white solid 1536-well plates and the plates were incubated at 37C/5% C02 in a cell incubator for 4 hrs. Then 4 ul Chroma-Glo luminescent substrate mix (Promega) was added to each well. The plate was incubated at R.T. for 10-15 min. The plates were measured on a ViewLux plate reader for green luminescence (540/20 nm filter) and red luminescence (618/8 nm filter). The green and red luminescent signals were corrected for red and green luminescence filter overlap using previously determined filter calibration constants (determined using the procedure outlined in the Promega Technical Manual). The %Activity was determined from the ratio of corrected green/red luminescent values. Green luminescent and ratio %Activity was determined by normalizing to the difference in signal between basal cells (0% Activity) and cells incubated with 10 uM of the proteasome inhibitor MG-132 (100% Activity). Red luminescent %Activity was normalized to the difference between red luminesence in basal cells (0%Activity) and zero luminescence (-100% Activity).
Concentration-response curves were fitted to the signals arising from the green luminescence (I-kappa-B-alpha-luciferase fusion; IkB-luc) and the red luminescence (unfused luciferase; luc) as well as the calculated ratio. The concentration-effect curves were then classified based on curve quality (r2), response magnitude and degree of measured activity. Compounds were then categorized based on their concentration-response curves for all three datasets (Ikb-luc, luc and ratio).
Keywords: IKK, I-kappa-B, IkB, IkBa, cytotoxicity, luminescence, MLSMR, MLSCN, NIH Roadmap, qHTS, NCGC
Potency means the concentration at half of the fitted maximal effect.

Compound	IkBa stabilization activation	Potency
Cc1nc(-c2ccc(S(=O)(=O)N(Cc3ccccc3)C(C)C)cc2)co1	inconclusive: 5.2% [signal inhibitor]	
C=CCN=C1SC(C)C(=O)N1S(=O)(=O)c1ccccc1 (stereo unspecified)	inactive: -0.476%	
CC(C)OCCCNC(=O)CCCn1c(SCC(N)=O)nc2c(sc3ccccc32)c1=O	inconclusive: -0.489% [signal inhibitor]	
COc1ccccc1N1CCN(C(=O)c2ccc3nc(-c4ccco4)c(-c4ccco4)nc3c2)CC1	inconclusive: -0.592% [signal inhibitor]	
O=C(CCS(=O)(=O)c1nc(-c2cccs2)cc(C(F)(F)F)n1)Nc1ccc(F)c(Cl)c1	inconclusive: -7.31% [signal inhibitor]	
Cc1ccc(NC(=O)C2CCN(S(=O)(=O)c3ccc4c(c3)CCCN4C(=O)C3CCC3)CC2)cc1	inconclusive: 1.43% [signal inhibitor]	
O=C(NCCCN1CCCCC1)c1[nH]c2ccccc2c1Sc1ccc(Cl)cc1	inconclusive: 0.494% [signal inhibitor]	
Cc1oc(-c2ccc3c(c2)OCCO3)cc1C(=O)NC(CCC(=O)O)C(=O)O (stereo unspecified)	inconclusive: -4.6% [signal inhibitor]	
Cc1cc(C)nc(NS(=O)(=O)c2ccc(NC(=O)c3nc(SC(C)C)ncc3Cl)cc2)n1	inconclusive: 0.123% [signal inhibitor]	
Cc1c(Cl)cccc1-n1ncc(C(=O)N2CCC(C)CC2)c1C1CCN(C(=O)OC(C)(C)C)CC1	inconclusive: -0.849% [signal inhibitor]	
COc1ccc(NC(=O)CSc2nc(-c3ccccc3)[nH]c2-c2ccccc2)cc1OC	inconclusive: 1.82% [signal inhibitor]	
COc1ccccc1-n1c(SCC(=O)N2CCOCC2)nc(O)c(Cc2ccccc2)c1=O	inconclusive: 8.81% [signal inhibitor]	
CC(C)C(NS(=O)(=O)c1ccc2c(c1)oc(=O)n2C)C(=O)NCc1ccccc1 (stereo unspecified)	inconclusive: 0.523% [signal inhibitor]	
CC(=O)c1ccc(N2CCN(C(=O)c3cc4c(s3)-c3ccccc3OC4)CC2)cc1	inconclusive: 5.85% [signal inhibitor]	
N#Cc1c(NC(=O)CCn2cnc3ccccc3c2=O)oc(-c2ccccc2)c1-c1ccccc1	inconclusive: 0.541% [signal inhibitor]	
Cc1oc(-c2ccc(C(=O)NCc3ccccc3F)cc2)nc1COc1ccccc1	inactive: 0.0912%	
CCOC(=O)c1c(-c2ccccc2)csc1NC(=O)c1cc(-c2ccc(C)c(F)c2)on1	inconclusive: 2.79% [signal inhibitor]	
C=CC1=C(C)C2=Cc3c(C=C)c(C)c4[n]3[Sn+2][n]3c(c(C)c(CCC(=O)O)c3=CC3=NC(=C4)C(C)=C3CCC(=O)O)=CC1=N2	inactive: -0.0678%	
CN(C)c1ccc(-c2cncnc2NCc2ccccc2)cc1	inactive: 1.45% [at 11.4 µM, scaled: untreated 0%, proteasome inhibitor 100%]	
Cc1ccc(Cl)cc1N1CCN(C(=O)CCCCCn2c(=O)[nH]c3ccccc3c2=O)CC1	inconclusive: -4.19% [signal inhibitor]	
CCc1ccc(NC(=O)C2CCCN(S(=O)(=O)c3c(C)noc3/C=C/N(C)C)C2)cc1 (stereo unspecified)	inconclusive: -1.36% [signal inhibitor]	

Compound	IkBa stabilization activation	Potency
COc1ccccc1N1CCN(Cc2ccc(OC)c3ccccc23)CC1	inconclusive: 3.91% [signal inhibitor]	
CCc1c(C)sc(NC(=O)c2cc(-c3cc(OC)ccc3OC)on2)c1C#N	inactive: -0.075%	
O=C(c1ccco1)[C@@H]1[C@@H]2C(=O)N(c3ccc(F)cc3)C(=O)[C@@H]2C2c3ccccc3C=CN21 (stereo partly specified)	inconclusive: 20.8% [signal inhibitor]	
Cc1cccc2cc(C#N)c(NCCNC(=O)NC3CCCCC3)nc12	inactive: 0.406%	
CCN1C(=O)c2ccccc2S(=O)(=O)c2ccc(C(=O)NCc3ccccc3Cl)cc21	inconclusive: 2.31% [signal inhibitor]	
COc1cccc(CNC(=O)c2c(C)oc3nc(C)nc(N4CCOCC4)c23)c1	inconclusive: 2.1% [signal inhibitor]	
CCOC(=O)C1CCN(C(=O)CSc2n[nH]c(-c3ccc(F)cc3)n2)CC1	inconclusive: 2.62% [signal inhibitor]	
CCOC(=O)c1[nH]c(C)c(C(=O)Nc2ccc3c(c2)OCCO3)c1C	inactive: -1.5%	
O=C(Cn1c(=O)oc2cc(S(=O)(=O)N3CCCC3)ccc21)NCc1ccc(F)cc1	inconclusive: 0.0734% [signal inhibitor]	
CCN(CC)c1ccc(NC(=O)CCCCCN2C(=O)c3ccccc3C2=O)cc1	inconclusive: 2.25% [signal inhibitor]	
Cc1cc(C(=O)C(=O)Nc2nnc(C(C)C)s2)c(C)n1-c1ccccc1	inconclusive: 2.01% [signal inhibitor]	
CCC(C)C(NC(=O)c1ccccc1NC(=O)c1ccco1)C(=O)O (stereo unspecified)	inactive: -2.81%	
Cc1ccccc1NS(=O)(=O)c1ccc2[nH]c3c(c2c1)CCCCC3	inconclusive: -4.43% [signal inhibitor]	
CCOC(=O)c1cc(-c2ccccc2)n(CCC(=O)Nc2nc3c(C)cccc3s2)c1C	inactive: 2.77%	
O=C(Nc1sc2c(c1C(=O)O)CCCCC2)c1ccco1		inconclusive: 5.01 µM [signal inhibitor, partial curve]
Cc1ccc(Cl)cc1N1CCN(C(=O)c2ccc3nc(N4CCC(C)CC4)sc3c2)CC1	inconclusive: 1.56% [signal inhibitor]	
CCOc1ccccc1CNC(=O)CCn1ccc2cc(S(=O)(=O)N3CCCCC3)ccc21	inconclusive: -0.76% [signal inhibitor]	
Cn1c(=O)c2sccc2n2c(CCCC(=O)Nc3ccc(Oc4ccc(Cl)cc4)cc3)nnc12	inconclusive: -5.26% [signal inhibitor]	
O=C(O)c1cc(-c2ccncc2)nc2ccccc12	inactive: -0.598% [at 11.4 µM, scaled: untreated 0%, proteasome inhibitor 100%]	
Cc1ccc(CNC2=NCCCCC2)n1C	inactive: 0.339%	
